At least one peptide structure holds a part that was inferred or is arguable (an end, a ring closure or a residue). Starred links: 1 amine or outer side, 2 acyl side, 3 side chain; linkers in the order of their positions; H or OH if unused. Residues, ends and D or L forms follow the SMILES beside them. Suc = O=C(CCC(=O)[*:2])[*:1]
Legend:
[1] = Circular dichroism, α-helix content; format: physicochemical; conditions: for % Helix (α-helix content): from CD ellipticity at 222 nm, 4° C., pH 7.5; for α-helix content by CD (in words): CD spectra
Procedure: CD spectra were measured using an Aviv model 62DS spectropolarimeter. Samples were prepared in 10 mM potassium phosphate buffer, pH 7.5 and 100 mM KF, and temperature was maintained at 4° C. unless described otherwise. Spectra were recorded from 320 nm to 190 nm using a 1 cm pathlength cuvette and the signal was averaged for 10 sec. Scans were repeated five times and averaged. Peptide concentrations were typically 5-20 μM and ellipticity was calculated per amino acid residue.
(§1) FIG. 3C. Relationship between helix content of the Rev34-50 peptides and RNA-binding specificity. Apparent Kd s (the peptide concentration at which 50% of the RNA was shifted) were determined for wild-type (specific; Ksp) and mutant (nonspecific; Knonsp) IIB RNAs from the date in FIGS. 3A and 3B. Specificity, the ratio of specific to nonspecific apparent association constants (Ka s) is plotted against the helix content for each peptide, determined from the CD ellipticity at 222 nm (Chen et al., (1974) "Determination of the Helix and Beta Form of Proteins in Aqueous Solution by Circular Dichroism" Biochemistry 13:3350-3359 ) Peptide I: helix=0.1%; ksp =2000 nM; Knonsp =3000 nM. Peptide II: helix=3.9%; Ksp =300 nM; Knonsp =2000 nM. Peptide III: helix=10.9%; Ksp =100 nM; Knonsp =2000 nM. Peptide IV: helix=27.9%; Ksp =40 nM; Knonsp =2000 nM. Peptide V: helix=51.2%; Ksp =20 nM; Knonsp 1500 nM.

mutant (C46-G74) IIB RNA = format: binding, HIV-1; conditions: for Kd: peptide concentration at which 50% of the RNA was shifted, C46-G74 mutant, in the presence of tRNA, 4° C., read-out: Knonsp (apparent Kd, mutant IIB RNA); for nonspecific binding affinity (in words): gel shift, C46-G74 mutant RNA
Procedure: (§2) Gel shift assays were performed at 4° C. unless described otherwise. Peptide and RNA were incubated together for 15 min on ice in 10 μl binding reactions containing 10 mM HEPES-KOH, pH 7.5, 100 mM KCl, 1 mM MgCl2, 0.5 mM EDTA, 1 mM dithithreitol, 50 μg/ml E. coli tRNA, and 10% glycerol. To determine relative binding affinities, 0.5 nM radiolabeled IIB RNA (or IIB mutant) was titrated with peptide. Peptide-RNA complexes were resolved in 10% polyacrylamide, 0.5x TBE gels that had been prerun for 1 hr and allowed to cool to 4° C. Gels were electrophoresed at 220 V for 3 hr at 4° C., dried, and autoradiographed.
as §1

wild-type RRE IIB RNA = format: binding, HIV-1; conditions: for Kd: peptide concentration at which 50% of the RNA was shifted, in the presence of tRNA, 4° C., read-out: Ksp (apparent Kd, wild-type IIB RNA); for Specificity (ratio of specific to nonspecific apparent association constants): wild-type vs C46-G74 mutant IIB RNA, in the presence of competitor tRNA
Procedure: as §2, §1

| SMILES | % Helix (α-helix content) [1] [%] | Kd (mutant (C46-G74) IIB RNA) [nM] | Kd (wild-type RRE IIB RNA) [nM] | Specificity (ratio of specific to nonspecific apparent association constants) (wild-type RRE IIB RNA) | α-helix content by CD (in words) ([1]; listed as Arg42→Ala) | nonspecific binding affinity (in words) (mutant (C46-G74) IIB RNA) | α-helix content by CD (in words) [1] |
| --- | --- | --- | --- | --- | --- | --- | --- |
| C[C@H](NC(=O)CCC(=O)O)C(=O)N[C@@H](CCCNC(=N)N)C(=O)N[C@@H](CCC(N)=O)C(=O)N[C@@H](C)C(=O)N[C@@H](CCCNC(=N)N)C(=O)N[C@@H](CCCNC(=N)N)C(=O)N[C@@H](CC(N)=O)C(=O)N[C@@H](CCCNC(=N)N)C(=O)N[C@@H](CCCNC(=N)N)C(=O)N[C@@H](CCCNC(=N)N)C(=O)N[C@@H](CCCNC(=N)N)C(=O)N[C@@H](Cc1c[nH]c2ccccc12)C(=O)N[C@@H](CCCNC(=N)N)C(=O)N[C@@H](CCC(=O)O)C(=O)N[C@@H](CCCNC(=N)N)C(=O)N[C@@H](CCC(N)=O)C(=O)N[C@@H](CCCNC(=N)N)C(N)=O [34 T → A] (Suc-ARQARRNRRRRWRERQR-NH2) | 28.6 | 1500 | 700 | 2.5 | – | – | – |
| C[C@H](NC(=O)[C@H](CCC(N)=O)NC(=O)[C@H](C)NC(=O)[C@@H](NC(=O)CCC(=O)O)[C@@H](C)O)C(=O)N[C@@H](CCCNC(=N)N)C(=O)N[C@@H](CCCNC(=N)N)C(=O)N[C@@H](CC(N)=O)C(=O)N[C@@H](CCCNC(=N)N)C(=O)N[C@@H](CCCNC(=N)N)C(=O)N[C@@H](CCCNC(=N)N)C(=O)N[C@@H](CCCNC(=N)N)C(=O)N[C@@H](Cc1c[nH]c2ccccc12)C(=O)N[C@@H](CCCNC(=N)N)C(=O)N[C@@H](CCC(=O)O)C(=O)N[C@@H](CCCNC(=N)N)C(=O)N[C@@H](CCC(N)=O)C(=O)N[C@@H](CCCNC(=N)N)C(N)=O [35 R → A] (Suc-TAQARRNRRRRWRERQR-NH2) | 33.4 | 1500 | 350 | 4.3 | – | – | – |
| C[C@H](NC(=O)[C@H](C)NC(=O)[C@H](CCCNC(=N)N)NC(=O)[C@@H](NC(=O)CCC(=O)O)[C@@H](C)O)C(=O)N[C@@H](CCCNC(=N)N)C(=O)N[C@@H](CCCNC(=N)N)C(=O)N[C@@H](CC(N)=O)C(=O)N[C@@H](CCCNC(=N)N)C(=O)N[C@@H](CCCNC(=N)N)C(=O)N[C@@H](CCCNC(=N)N)C(=O)N[C@@H](CCCNC(=N)N)C(=O)N[C@@H](Cc1c[nH]c2ccccc12)C(=O)N[C@@H](CCCNC(=N)N)C(=O)N[C@@H](CCC(=O)O)C(=O)N[C@@H](CCCNC(=N)N)C(=O)N[C@@H](CCC(N)=O)C(=O)N[C@@H](CCCNC(=N)N)C(N)=O [36 Q → A] (Suc-TRAARRNRRRRWRERQR-NH2) | 25.6 | 1600 | 40 | 40 | – | – | – |
| C[C@H](NC(=O)[C@H](C)NC(=O)[C@H](CCC(N)=O)NC(=O)[C@H](CCCNC(=N)N)NC(=O)[C@@H](NC(=O)CCC(=O)O)[C@@H](C)O)C(=O)N[C@@H](CCCNC(=N)N)C(=O)N[C@@H](CC(N)=O)C(=O)N[C@@H](CCCNC(=N)N)C(=O)N[C@@H](CCCNC(=N)N)C(=O)N[C@@H](CCCNC(=N)N)C(=O)N[C@@H](CCCNC(=N)N)C(=O)N[C@@H](Cc1c[nH]c2ccccc12)C(=O)N[C@@H](CCCNC(=N)N)C(=O)N[C@@H](CCC(=O)O)C(=O)N[C@@H](CCCNC(=N)N)C(=O)N[C@@H](CCC(N)=O)C(=O)N[C@@H](CCCNC(=N)N)C(N)=O [38 R → A] (Suc-TRQAARNRRRRWRERQR-NH2) | 37.0 | 2000 | 500 | 4 | – | – | – |
| C[C@H](NC(=O)[C@H](CCCNC(=N)N)NC(=O)[C@H](C)NC(=O)[C@H](CCC(N)=O)NC(=O)[C@H](CCCNC(=N)N)NC(=O)[C@@H](NC(=O)CCC(=O)O)[C@@H](C)O)C(=O)N[C@@H](CC(N)=O)C(=O)N[C@@H](CCCNC(=N)N)C(=O)N[C@@H](CCCNC(=N)N)C(=O)N[C@@H](CCCNC(=N)N)C(=O)N[C@@H](CCCNC(=N)N)C(=O)N[C@@H](Cc1c[nH]c2ccccc12)C(=O)N[C@@H](CCCNC(=N)N)C(=O)N[C@@H](CCC(=O)O)C(=O)N[C@@H](CCCNC(=N)N)C(=O)N[C@@H](CCC(N)=O)C(=O)N[C@@H](CCCNC(=N)N)C(N)=O [39 R → A] (Suc-TRQARANRRRRWRERQR-NH2) | 29.8 | 2000 | 500 | 4 | – | – | – |
| C[C@H](NC(=O)[C@H](CCCNC(=N)N)NC(=O)[C@H](CCCNC(=N)N)NC(=O)[C@H](C)NC(=O)[C@H](CCC(N)=O)NC(=O)[C@H](CCCNC(=N)N)NC(=O)[C@@H](NC(=O)CCC(=O)O)[C@@H](C)O)C(=O)N[C@@H](CCCNC(=N)N)C(=O)N[C@@H](CCCNC(=N)N)C(=O)N[C@@H](CCCNC(=N)N)C(=O)N[C@@H](CCCNC(=N)N)C(=O)N[C@@H](Cc1c[nH]c2ccccc12)C(=O)N[C@@H](CCCNC(=N)N)C(=O)N[C@@H](CCC(=O)O)C(=O)N[C@@H](CCCNC(=N)N)C(=O)N[C@@H](CCC(N)=O)C(=O)N[C@@H](CCCNC(=N)N)C(N)=O [40 N → A] (Suc-TRQARRARRRRWRERQR-NH2) | 25.3 | 5000 | 1600 | 3.1 | – | – | – |
| C[C@H](NC(=O)[C@H](CC(N)=O)NC(=O)[C@H](CCCNC(=N)N)NC(=O)[C@H](CCCNC(=N)N)NC(=O)[C@H](C)NC(=O)[C@H](CCC(N)=O)NC(=O)[C@H](CCCNC(=N)N)NC(=O)[C@@H](NC(=O)CCC(=O)O)[C@@H](C)O)C(=O)N[C@@H](CCCNC(=N)N)C(=O)N[C@@H](CCCNC(=N)N)C(=O)N[C@@H](CCCNC(=N)N)C(=O)N[C@@H](Cc1c[nH]c2ccccc12)C(=O)N[C@@H](CCCNC(=N)N)C(=O)N[C@@H](CCC(=O)O)C(=O)N[C@@H](CCCNC(=N)N)C(=O)N[C@@H](CCC(N)=O)C(=O)N[C@@H](CCCNC(=N)N)C(N)=O [41 R → A] (Suc-TRQARRNARRRWRERQR-NH2) | 37.3 | 3000 | 65 | 46 | – | – | – |
| C[C@H](NC(=O)[C@H](CCCNC(=N)N)NC(=O)[C@H](CC(N)=O)NC(=O)[C@H](CCCNC(=N)N)NC(=O)[C@H](CCCNC(=N)N)NC(=O)[C@H](C)NC(=O)[C@H](CCC(N)=O)NC(=O)[C@H](CCCNC(=N)N)NC(=O)[C@@H](NC(=O)CCC(=O)O)[C@@H](C)O)C(=O)N[C@@H](CCCNC(=N)N)C(=O)N[C@@H](CCCNC(=N)N)C(=O)N[C@@H](Cc1c[nH]c2ccccc12)C(=O)N[C@@H](CCCNC(=N)N)C(=O)N[C@@H](CCC(=O)O)C(=O)N[C@@H](CCCNC(=N)N)C(=O)N[C@@H](CCC(N)=O)C(=O)N[C@@H](CCCNC(=N)N)C(N)=O [42 R → A] (Suc-TRQARRNRARRWRERQR-NH2) | 34.0 | 2000 | 35 | 57 | helix content similar to the wild-type peptide | nonspecific binding affinities were unchanged | – |
| C[C@H](NC(=O)[C@H](CCC(N)=O)NC(=O)[C@H](CCCNC(=N)N)NC(=O)[C@@H](NC(=O)CCC(=O)O)[C@@H](C)O)C(=O)N[C@@H](CCCNC(=N)N)C(=O)N[C@@H](CCCNC(=N)N)C(=O)N[C@@H](CC(N)=O)C(=O)N[C@@H](CCCNC(=N)N)C(=O)N1CCC[C@H]1C(=O)N[C@@H](CCCNC(=N)N)C(=O)N[C@@H](CCCNC(=N)N)C(=O)N[C@@H](Cc1c[nH]c2ccccc12)C(=O)N[C@@H](CCCNC(=N)N)C(=O)N[C@@H](CCC(=O)O)C(=O)N[C@@H](CCCNC(=N)N)C(=O)N[C@@H](CCC(N)=O)C(=O)N[C@@H](CCCNC(=N)N)C(N)=O [Arg42→Pro] (Suc-TRQARRNRPRRWRERQR-NH2) | – | – | – | – | – | nonspecific binding affinities were unchanged | random coil |
| C[C@H](NC(=O)[C@H](CCC(N)=O)NC(=O)[C@H](CCCNC(=N)N)NC(=O)[C@@H](NC(=O)CCC(=O)O)[C@@H](C)O)C(=O)N[C@@H](CCCNC(=N)N)C(=O)N[C@@H](CCCNC(=N)N)C(=O)N[C@@H](CC(N)=O)C(=O)N[C@@H](CCCNC(=N)N)C(=O)N[C@@H](CCCNC(=N)N)C(=O)N[C@@H](CCCNC(=N)N)C(=O)N[C@@H](CCCNC(=N)N)C(=O)N[C@@H](Cc1c[nH]c2ccccc12)C(=O)N[C@@H](CCCNC(=N)N)C(=O)N[C@@H](CCC(=O)O)C(=O)N[C@@H](CCCNC(=N)N)C(=O)N[C@@H](CCC(N)=O)C(=O)N[C@@H](CCCNC(=N)N)C(N)=O [Peptide IV, suc-Rev34-50 --am] (Suc-TRQARRNRRRRWRERQR-NH2) | – | 2000 | 40 | 50 | – | – | – |
